Source: PubChem BioAssay AID1030 (National Center for Advancing Translational Sciences (NCATS), 2008)
About 16,000 (7.3%) of roughly 220,000 compounds were called active. The shares of active, inactive and inconclusive entries below differ from those in the screen. Calls come from the whole dose curve; as a rule, active = well fitted inhibition curve with a large enough effect (not every such curve was filed as active); inconclusive = small, poorly fitted or top-dose-only effect, or another doubt; inactive = no such curve, though single readings can be large or run the other way. No potency is given beside an inconclusive call; the fits are too rough.
Potency is the fitted concentration of half-maximal effect; tags give direction and shape of the fitted curve.
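Throughout, for activity, negative = inhibition: plate controls were no enzyme wells and a reference inhibitor.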

What follows are molecules tested against Aldehyde dehydrogenase 1A1 (Homo sapiens) (UniProt P00352) (assay: qHTS Assay for Inhibitors of Aldehyde Dehydrogenase 1 (ALDH1A1)). Conditions: Purified ALDH1A1, NADH fluorescence, propionaldehyde substrate; series mostly up to 75.3 µM; activity, negative = inhibition: at the top concentration.
UniProt P00352, sequence (P00352 whole entry, looked up): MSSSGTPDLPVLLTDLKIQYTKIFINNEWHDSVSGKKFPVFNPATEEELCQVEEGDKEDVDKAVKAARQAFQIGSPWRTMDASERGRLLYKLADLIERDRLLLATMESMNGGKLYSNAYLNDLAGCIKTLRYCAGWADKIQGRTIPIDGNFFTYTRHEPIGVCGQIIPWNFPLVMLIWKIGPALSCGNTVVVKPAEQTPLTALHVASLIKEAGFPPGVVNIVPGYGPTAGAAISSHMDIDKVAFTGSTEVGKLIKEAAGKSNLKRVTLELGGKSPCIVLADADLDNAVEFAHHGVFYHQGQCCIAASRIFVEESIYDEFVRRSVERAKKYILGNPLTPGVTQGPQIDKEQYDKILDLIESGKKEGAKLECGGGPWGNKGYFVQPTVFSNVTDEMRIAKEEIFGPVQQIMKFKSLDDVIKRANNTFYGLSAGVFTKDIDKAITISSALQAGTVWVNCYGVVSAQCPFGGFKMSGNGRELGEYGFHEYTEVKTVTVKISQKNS
For `Clc1ccccc1C1=CC(c2ccco2)n2nnnc2N1` (centres undefined), the Potency was active: 12.6 µM. For `Cc1nc2ccc(NC(=O)N3CCC(c4ccccc4)C3)cc2nc1C` (centres undefined), the Potency was inconclusive [inhibitor, partial curve]. With `CCOC(=O)c1c(-c2cccs2)csc1NC(=O)c1ccncc1` the Potency was inconclusive [inhibitor, partial curve]. `O=C(Nc1ccc(-c2nc3c(ccc4ccccc43)o2)cc1)c1ccco1` was tested, and the Potency was inconclusive [inhibitor, partial curve]. `O=C(Nn1c(SCc2ccccc2F)nc2ccsc2c1=O)c1ccccc1` was tested, and the Potency was inconclusive [inhibitor, single point]. For `NS(=O)(=O)c1ccc(CCNC(=O)[C@@H]2CCCN2S(=O)(=O)c2ccccc2F)cc1`, the “activity, negative = inhibition” value was inactive: -3.43%. `COc1ccc(Oc2ncc3nc(-c4ccccc4)c(=O)n(CCC#N)c3n2)cc1` was tested, and the Potency was inconclusive [inhibitor, single point]. With `CC1=NCCN1S(=O)(=O)c1cc([N+](=O)[O-])ccc1Cl` the Potency was active: 7.94 µM. With `O=[N+]([O-])c1cc(Oc2cccnc2)cc([N+](=O)[O-])c1` the “activity, negative = inhibition” value was inactive: -1.23%. `O=c1oc2ccccc2c(N2CCCCC2)c1CN1CCCCC1` was tested, and the Potency was active: 14.1 µM. In the case of `O=C(O)c1ccccc1C(=O)N1N=C2/C(=C/c3cccc([N+](=O)[O-])c3)CCCC2C1c1cccc([N+](=O)[O-])c1` (centres undefined), the Potency is reported as inconclusive [inhibitor, single point]. `Cc1ccc(CN2CN(S(=O)(=O)c3cccs3)c3nc4ccccc4nc32)cc1` was tested, and the Potency was inconclusive [inhibitor, partial curve]. `Cc1cc(C)cc(NC(=O)CSc2nc(N)c(NC(=O)c3cccs3)c(=O)[nH]2)c1` was tested, and the “activity, negative = inhibition” value was inactive: 6.07%. With `Cn1c(SCc2ccccc2)nnc1C1CCCNC1` (centres undefined) the “activity, negative = inhibition” value was inactive: 4.62%. `CN(Cc1nc2ccccc2c(=O)[nH]1)Cc1nc2ccsc2c(=O)[nH]1` was tested, and the Potency was inconclusive [inhibitor, single point]. For `O=C1COc2ccc(C(=O)COC(=O)Cc3ccccc3F)cc2N1`, the Potency was inconclusive [inhibitor, single point]. In the case of `N#C/C(=C\c1ccco1)Sc1nc2ccccc2s1`, the Potency is reported as active: 12.6 µM. With `Cc1cccc(NC(=O)c2cc3ccccc3nc2C)c1` the “activity, negative = inhibition” value was inactive: -2.02%. `CC(C)(C)NC(=O)c1cc(F)c(F)cc1Cl` was tested, and the “activity, negative = inhibition” value was inactive: 11.1%. `O=C(Oc1ccc2c(c1)OCO2)c1ccc(Br)c(S(=O)(=O)N2CCOCC2)c1` was tested, and the Potency was inconclusive [inhibitor, single point]. `C1=C(c2ccccc2)CCN(c2nc3ccccc3n3cnnc23)C1` was tested, and the Potency was active: 28.2 µM. In the case of `O=C(Nc1nc(-c2ccc3c(c2)OCO3)cs1)c1ccncc1`, the “activity, negative = inhibition” value is reported as inactive: 5.35%. For `Cc1cc(NC(=O)c2ccc3c(c2)OCCO3)ccc1NC(=O)c1ccco1`, the “activity, negative = inhibition” value was inactive: -3.37%. In the case of `COc1cccc(N(CC(=O)NCCSc2ccccc2)S(C)(=O)=O)c1`, the Potency is reported as inconclusive [inhibitor, partial curve]. For `O=C(O)CCSc1nc(C(F)(F)F)cc(=O)n1-c1ccccc1`, the “activity, negative = inhibition” value was inactive: -7.27%. `NC(C(=O)O)c1cccc(O)c1` (centres undefined) was tested, and the “activity, negative = inhibition” value was inactive: 20.5%. For `COC(=O)c1sc2nc(-c3ccccc3)nc(N3CCN(C)CC3)c2c1C`, the Potency was inconclusive [inhibitor, partial curve]. For `C/C(CC(=O)NCC(C)C)=N\NC(=O)COc1cc(C)c(Br)cc1Br`, the Potency was inconclusive [inhibitor, single point]. In the case of `COC(=O)[C@H](CCCN=C(N)N)NC(=O)CCCc1c(-c2ccccc2)[nH]c2c(F)cc(F)cc12`, the “activity, negative = inhibition” value is reported as inactive: -8.18%. With `O=C1CCNc2cc3ccccc3cc21` the Potency was inconclusive [inhibitor, single point]. For `Cc1ccccc1CNC(=O)c1ccccc1C`, the “activity, negative = inhibition” value was inactive: 0.469%. For `COc1ccc(Cc2nc(-c3ccc(Br)o3)no2)cc1OC`, the Potency was inconclusive [inhibitor, single point]. In the case of `COCCN(CCOC)c1ncc(Cl)c(C(=O)c2c(C)cc3ccccn23)n1`, the “activity, negative = inhibition” value is reported as inactive: -5.46%. For `CCOC(=O)CCCNC(=O)c1cncc(O)c1`, the Potency was inconclusive [inhibitor, single point]. With `CCOc1ccc(C(=O)Nc2sc3c(c2C(=O)OC)CC(C)(C)NC3(C)C)cc1` the Potency was inconclusive [inhibitor, single point]. In the case of `Cn1c(CN2CCOCC2)c(C#N)c2ccccc21`, the Potency is reported as inconclusive [inhibitor, partial curve]. With `CN(C)C(=O)CSc1cccc2cccnc12` the Potency was inconclusive [inhibitor, partial curve]. With `COC(=O)c1ccc(CSc2nc3ccc(Cl)cc3[nH]2)o1` the Potency was inconclusive [inhibitor, single point]. With `Cc1ccc(-c2csc(N/N=C/C=C/c3ccccc3)n2)cc1` the Potency was active: 22.4 µM. For `CC(N=Cc1cccc(O)c1O)c1ccccc1` (centres undefined), the Potency was inconclusive [inhibitor, partial curve, poor fit]. In the case of `O=C(/C=C/c1ccc2c(c1)OCO2)Nc1nc(-c2ccc(F)cc2F)cs1`, the Potency is reported as inconclusive [inhibitor, single point]. With `CC(C)n1c(SC2C(=O)CC(C)(C)CC2=O)nc2c1c(=O)n(C)c(=O)n2C` the Potency was inconclusive [inhibitor, single point]. With `C=CCn1cc(C(=O)N2CCc3ccccc3C2)c(=O)c2cc(S(=O)(=O)N(CC)CC)ccc21` the Potency was inconclusive [inhibitor, partial curve]. With `CC(C)CNC(=S)N(Cc1ccco1)Cc1cc2cc3c(cc2[nH]c1=O)OCCO3` the Potency was inconclusive [inhibitor, partial curve]. `CCOc1ccc(N=CC2=C(O)CC(c3ccco3)CC2=O)cc1` (centres undefined) was tested, and the “activity, negative = inhibition” value was inactive: -13.1%. For `CCC/C=C/C1C(=O)C2OC2C2(OCC(CC)(CC)CO2)C1CO` (centres undefined), the activity, negative = inhibition was inactive: 6.18% [at 13.5 µM]. `CC12CCC(C(=O)Nc3cc(Cl)ccc3Cl)(C/C1=N\O)C2(C)C` (centres undefined) was tested, and the Potency was inconclusive [inhibitor, single point]. `COc1nc(/C=C/N(C)C)c([N+](=O)[O-])c(OC)n1` was tested, and the Potency was inconclusive [inhibitor, single point]. `CCN(CC)c1ccc(/C=C(\C#N)c2ccccn2)cc1` was tested, and the Potency was inconclusive [inhibitor, single point]. For `CCOc1cc(S(=O)(=O)NCc2ccccn2)c(C)cc1C`, the “activity, negative = inhibition” value was inactive: -14.6%. With `N[C@H](C(=O)O)[C@H](O)C(=O)O` the Potency was “inactive”. `CC(C)Oc1cccc(C(=O)C2CCCN(C(=O)c3noc4c3CCCC4)C2)c1` (centres undefined) was tested, and the Potency was inconclusive [inhibitor, single point]. For `COc1ccc(/C=N/Nc2ccc(C(=O)O)cc2)cc1Br`, the Potency was inconclusive [inhibitor, single point]. For `Cc1cc(C)n2nc(SCc3nnc(-c4ccccc4Br)o3)nc2n1`, the “activity, negative = inhibition” value was inactive: 2.1%. With `CC(=O)c1cc2c(cc1NC(=O)CSc1nnc(C)s1)OCO2` the Potency was inconclusive [inhibitor, partial curve]. In the case of `Cc1c(S(=O)(=O)N2CCOCC2)c(=O)n(C)c(=O)n1C`, the “activity, negative = inhibition” value is reported as inactive: 5.01%. For `CCN(CC(=O)Nc1cccc(OC)c1)CC(=O)Nc1ccc(C)cc1Cl`, the Potency was inconclusive [inhibitor, single point]. With `COc1ccc(-c2[nH]c(-c3ccc(Cl)cc3)nc2SCC(=O)Nc2nccs2)cc1` the “activity, negative = inhibition” value was inactive: 24.1%. `Cc1nc(-c2ccc(S(=O)(=O)Oc3ccccc3Cl)s2)cs1` was tested, and the Potency was inconclusive [inhibitor, single point]. In the case of `Cc1ccc(NC(=O)CN(C)S(=O)(=O)c2cccs2)cc1C`, the Potency is reported as inconclusive [inhibitor, single point]. For `Cc1nn(-c2ccccc2)c2sc(C(=O)NCCN3CCOCC3)cc12`, the Potency was inconclusive [inhibitor, partial curve]. With `CCCCOC(=O)c1ccc(N2C(=O)CC(N3CCN(C/C=C/c4ccccc4)CC3)C2=O)cc1` (centres undefined) the Potency was active: 12.6 µM. For `Cc1cc(CNC(=O)[C@@H]2C[C@H]2[C@@H](NP(=O)(c2ccccc2)c2ccccc2)c2ccccc2)nn1C`, the “activity, negative = inhibition” value was inactive: -0.543%. For `CCN1C(=O)C(O)(CC(=O)c2cccc(-n3cccc3)c2)c2ccccc21` (centres undefined), the Potency was active: 4.47 µM. For `CCN1CCN(c2cc(C)c3cc(NC(=O)c4cccnc4Cl)ccc3n2)CC1`, the Potency was inconclusive [inhibitor, single point]. `O=C(COC(=O)C(c1ccccc1)c1ccccc1)NCc1ccco1` was tested, and the Potency was inconclusive [inhibitor, single point]. `O=S(=O)(NC1=NCCC1)c1cccc(NC(=S)NCCc2ccccc2)c1` was tested, and the Potency was inconclusive [inhibitor, single point]. `COc1ccc(-c2nnco2)cc1OC` was tested, and the Potency was inconclusive [inhibitor, single point]. In the case of `CCN(CC)CCN(Cc1cc2cc3c(cc2[nH]c1=O)OCO3)C(=S)NCc1ccco1`, the Potency is reported as inconclusive [inhibitor, partial curve]. For `CC(Oc1ccc(-c2ccccc2)c(F)c1)c1ccn(S(=O)(=O)c2ccc(F)cc2)n1` (centres undefined), the “activity, negative = inhibition” value was inactive: 0.509%. `Cc1ccc(NC(=O)c2nc[nH]c2C(=O)N[C@@H](C)c2ccccc2)cc1` was tested, and the Potency was inconclusive [inhibitor, single point]. In the case of `Cc1nc2[nH]c(=O)c3c(n2n1)NC1=C(C(=O)CC(C)(C)C1)C3c1ccccc1` (centres undefined), the Potency is reported as inconclusive [inhibitor, partial curve]. With `S=c1[nH]cc(-c2ccccc2)n1-c1ccccc1Cl` the Potency was active: 0.891 µM. In the case of `Cc1cc(C)cc(N(CC(=O)Nc2ccccc2-c2ccccc2)S(=O)(=O)c2ccccc2)c1`, the “activity, negative = inhibition” value is reported as inactive: -2.79%.
